Results reported in the supplement of paper PMC9334596.
“And” between values parts separate entries of the source, which are not always exact repeats. Equal entries are not always repeated. In all, about 5,300 compounds were measured (“PER2::LUC luminescence relative to vehicle control”: median about 0.96, highest 2% from about 1.3 on). Some of the results follow.

Tested on: mPer2Luc MEF
Assay: PER2::LUC luminescence relative to vehicle control (fold of vehicle); higher = higher PER2::LUC reporter signal
Conditions: 10 µM
Procedure, shortened: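 Mouse embryonic fibroblasts carrying the mPer2Luc reporter were seeded at ~3000 cells per well in 384-well plates, 48 h before compounds from commercial libraries were added at 10 μM. Cells were grown in DMEM with 10% FBS at 37 °C and 5% CO2. Luminescence was read with the ONE-Glo luciferase assay system 24 h and 30 h after treatment, followed by an alamarBlue viability assay. The value is PER2::LUC luminescence as fold of vehicle control.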

SMILES	PER2::LUC luminescence (time after treatment 24 h)	PER2::LUC luminescence (time after treatment 30 h)
COc1ccc(C[C@H]2c3cc(OC)c(OC)cc3CC[N+]2(C)C)cc1OC	0.944	0.889
CC1=C(/C=C/C(C)=C/C=C/C(C)=C\CO)C(C)(C)CCC1	1.08	1.03
O=C(O)c1ccc2nc(-c3cc(Cl)cc(Cl)c3)oc2c1	1.42	1.43
C/C=C(/C(=C/C)c1ccc(O)cc1)c1ccc(O)cc1	0.911	0.979
Cc1ncc([N+](=O)[O-])n1CC(C)O (stereo unspecified)	0.949 and 1.15	1.08 and 1.1
CCNCc1cc(C(C)(C)C)c(O)c(C(C)(C)C)c1	1.04	0.978
O=C(O)c1ccccc1OP(=O)(O)O	0.88	1.03
COC(=O)c1c(C)cc(OC(=O)c2c(C)cc(O)c(C=O)c2O)c(C)c1O	0.967	0.979
OC1(c2ccc(Cl)cc2)CCN(Cc2c[nH]c3ccccc23)CC1	0.66	0.717
COc1ccccc1N1CCN(CCN(C(=O)c2ccc(I)cc2)c2ccccn2)CC1	0.942	0.975
OCCn1cc(-c2cnc3nnn(Cc4ccc5ncccc5c4)c3n2)cn1	1.15	1.04
CC1=C(/C=C/C(C)=C/C=C/C(C)=C/CO)C(C)(C)CCC1	1.35 and 1.26 and 1.07	1.26 and 1.06 and 1.11
Oc1ccc(-c2nc(-c3ccc(F)cc3)c(-c3ccncc3)[nH]2)cc1	0.39	0.695
N#CCc1ccccc1C#Cc1ccc(CCC(=O)O)c(F)c1	1.31	1.28
O=C(Nc1ccc(S(=O)(=O)Nc2ccccc2Cl)c(Cl)c1)c1ccccn1	0.992	1.06
CCC(NC(C)C)C(O)c1ccc(O)c2[nH]c(=O)ccc12 (stereo unspecified)	1.03	0.916
O=C(NC[C@H](O)CO)c1ccncc1Nc1ccc(I)cc1F	0.286	0.223
O=C(O)c1ccc2cc(-c3ccc(O)c(C45CC6CC(CC(C6)C4)C5)c3)ccc2c1	1.59	1.63
COc1ccc([C@@H](C)C(=O)c2ccc(O)cc2O)cc1	1.1	1.08
O=C(/C=C/c1ccccc1)c1ccc(O[C@@H]2O[C@H](CO)[C@@H](O)[C@H](O)[C@H]2O)cc1O	1.21	1.27
O=C(O)[C@@]1(CCCCCCOc2ccc(Cl)cc2)CO1	0.936	1.01
C=C[C@H]1CN2CC[C@H]1C[C@H]2[C@H](O)c1ccnc2ccc(OC)cc12	1.04 and 0.874 and 0.512	0.948 and 0.925 and 1.01

SMILES	PER2::LUC luminescence (time after treatment 24 h)	PER2::LUC luminescence (time after treatment 30 h)
CC[C@H](C)[C@H](NC(=O)[C@H](Cc1ccc(O)cc1)NC(=O)[C@@H](NC(=O)[C@H](CCCNC(=N)N)NC(=O)[C@@H](N)CC(=O)O)C(C)C)C(=O)N[C@@H](Cc1c[nH]cn1)C(=O)N1CCC[C@H]1C(=O)O	0.993	0.917
c1cc(NC2CCNCC2)nc(-c2cnc3ccccn23)c1	0.506	0.487
CC1(C)S[C@@H]2[C@H](NC(=O)[C@H](N)c3ccccc3)C(=O)N2[C@H]1C(=O)O	1.04 and 0.885	0.911 and 0.808
Cc1ccccc1C(C(=O)NC1CCCCC1)N(C(=O)Cn1ccnc1C)c1cccc(F)c1 (stereo unspecified)	0.955	0.931
O=C(O)c1cc(=O)[nH]c(=O)[nH]1	1.03	1
O=C([O-])CN1CCN(CC(=O)[O-])CCN([C@H](CO)[C@H](O)CO)CCN(CC(=O)[O-])CC1.[Gd+3] (racemic)	1.03	1.04
O=c1n(CCCN2CCN(c3cccc(Cl)c3)CC2)nc2ccccn12	0.773	0.747
CC(=O)NCCCCCC(=O)O	0.89	1.17
CCC(=O)c1ccc2c(c1)N(CCCN(C)C)c1ccccc1S2	0.817	0.807
CSc1nc2cc(Cl)c(Oc3cccc(Cl)c3Cl)cc2[nH]1	0.808	0.856
Cc1nc2ccccn2c(=O)c1CCN1CCC(C(=O)c2ccc(F)cc2)CC1	0.574	0.838
O=C(CCNNC(=O)c1ccncc1)NCc1ccccc1	0.857	0.82
Cc1cnc(-c2ccccc2C(C)C)nc1NCc1ccc(-n2ccnn2)cc1	0.666	0.596
N/C(=N\C(=O)c1nc(Cl)c(N)nc1N)NCc1ccccc1	1.08	0.986
CCCn1c(=O)c2[nH]c(C3CCCC3)nc2n(CCC)c1=O	0.967	0.935
Cn1nnc(-c2ccc(-c3ccc(N4C[C@@H](CO)OC4=O)cc3F)cn2)n1	1.01	1.09
CCCCC[C@H](O)/C=C/[C@H]1[C@H](O)CC(=O)[C@@H]1C/C=C\CCCC(=O)O	1.09	1.07
O=C1[C@@H]2[C@H]3CC[C@H](C3)[C@@H]2C(=O)N1C[C@@H]1CCCC[C@H]1CN1CCN(c2nsc3ccccc23)CC1	0.419	0.621
O=Nc1c(O)[nH]c2c(Cl)c(Cl)ccc12	1.05	1.07
Cn1cnc2c(F)c(Nc3ccc(Br)cc3F)c(C(=O)NOCCO)cc21	0.652 and 0.518	0.54 and 0.484
C#Cc1cccc(Nc2ncnc3cc(OCCOC)c(OCCO)cc23)c1	0.945 and 0.667	0.784 and 0.637
